# The other results are listed elsewhere or left out.
# Tested on: PfSIP2 AP2 domain 1 (GST-tagged)
# Assay: gcPBM binding intensity (ln(normalized median fluorescence intensity)); higher = stronger DNA binding
# Procedure, shortened: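 Alexa488 anti-GST antibody, scanned at 488 nm, detected GST-tagged P. falciparum DNA-binding domains that had been expressed in E. coli and incubated for 1 h on an Agilent 4 × 180k array. The array carried primer-extended double-stranded 36-bp intergenic genomic probes and negative controls. Binding intensity is the highest Masliner-normalised natural-log median intensity across replicate spots of either orientation of each probe.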
row,Sequence,gcPBM binding intensity (ln)
1,TAATTCTTGTAAAATGTGCGCAGTAGATATAGTTTT,7.35
2,AGATATAAGAAAAGCACACACACACTAGAAAAAAAA [CACACA_site5559],7.05
3,ATATTTATTCAATCCAGTACATATTATATATTGTAT [XGTACX_site184],7.07
4,ATAAAATTATATACGTGTACATATATATATTTATGT [XGTACX_site4653],7.06
5,ACACATCAAATATAAAAAAAAAATAACTATAAATAA [CACACA_negctrl_site587],7.09
6,TATAAAAGTGGACACACACACATATATATATATATA [CACACA_site4673],9.47
7,AATTTTTTTTTTTTGTTGCACTTTTAGAGTTTTAAT [GTGCAC_site9519],8.31
8,CCTTTAAGCAAAAACACACACACATATTTATTTATA [CACACA_site6294],6.99
9,TAATAAATAGGACACACACACATATTTATATATCAT [CACACA_site6771],6.98
10,TTGCAAAATTGTTTTATCACAAATATATACTTAATA [CACACA_negctrl_site403],6.89
11,TTTCTTTTTATATTCACACATAAATATATATATATA [CACACA_site6053],8.54
12,AAAAAAAAAAAACACACACACACATACCCATACATA [CACACA_site5575],7.5
13,TATATAAGGAAATATTGTACTTTTATATTTATATTA [XGTACX_site3814],6.74
14,ATATAAAAATATAATACACACATAAAATATATTATA [CACACA_site969],6.93
15,TGTATGCTTACATAATGTACGGAAAAATAAAGGCAT [XGTACX_site6923],7.59
16,ATATATAAATAATGTTGTACGTATTTCAAAAGTATG [XGTACX_site3363],7.29
17,ATAATAATAATAAAAAGTACAAATTATTATATATAT [XGTACX_site5160],7.35
18,TGCTCTCTCTTGTTGTGTACATAATACAATATATAT [XGTACX_site7427],7.86
19,TACATTTAAAAAAAAACACACATATATATATATATA [CACACA_site2535],9.57
20,ATATATTTGTATAATAGTACGTACAGGCAAAATATA [XGTACX_site7396],7.79
21,TATAACAAAAAAAAATAAAAAATAAAACTATATATA [CACACA_negctrl_site504],6.67
22,TTTTTTTTTTATTCTTCACACATTTCCAATAAAAAA [CACACA_site5601],7.13

row,Sequence,gcPBM binding intensity (ln)
1,ACCTAAAATAACTACACACACATAAAAAAAAAAAAA [CACACA_site2529],7.27
2,GTTATTATATATATGTGTACTTAAAAATTTTATGTC [XGTACX_site6084],7.41
3,AAAAAAAAAAAAAAAACACACAGAAATATATATATA [CACACA_site4611],8.8
4,AAAGAAGGGAAACACACACACACACCCACAAAAAAA [CACACA_site3766],7.04
5,AATAAAAAAAAAATAAATTTAATAATAATAATAAAA [CACACA_negctrl_site569],6.64
6,TTTATATATTTTAGGAGTACATTAAATTATACCTTA [XGTACX_site5600],7.24
7,TGTATATATATTTATGCATGCTGTGTGTATTCTTTT [TGCATGCA_site74],6.9
8,ATTAATATTTAGACTTGTACATATATAATATATGTC [XGTACX_site3766],6.88
9,ATAAAATATCAATACCGTACACAAGCAGGTAAAATA [XGTACX_site3719],6.87
10,CTTTTTTGTAATAACACACACACAAACAGAAAAAAT [CACACA_site2075],7.55
11,AATATAAATATAAATTGTACTTAAAAATTTCACGCA [XGTACX_site5234],6.91
12,TTAAAAAACTATAATACACACCAAAAATATGCACAT [CACACA_site7079],9.04
13,TTTCGTTGTGTATTTTGTACATATTTTTAATTATAT [XGTACX_site6687],7.23
14,TCCTTTTGAACCCTTTTTCTCACAAGACCTTTATAT [TGCATGCA_negctrl_site413],7.05
15,AAGAAAAAGATGCGCATACACACAGATGAATAACAA [CACACA_site1627],7.15
16,TTTCTTTTTTAAATTAAAATTTTTTTTTTTTTCGGT [TGCATGCA_negctrl_site52],6.67
17,TTATTTCAAAGTTGTTGTACAAAAATATATTTATAA [XGTACX_site5226],7.13
18,AAAAAAATAATGTACACACACATATATGTTTATATA [CACACA_site6234],7.12
19,AATTAAAAAGTTTTTAATGTTTTTAATTTTTTCCAC [XGTACX_negctrl_site423],7
20,AAAGGTGTATTTAATACACACGTGTCATTAAAATTG [CACACA_site4508],6.74
21,TATATAAATTATGTGAGTACATAATTTAGAAGGAAC [XGTACX_site2807],7.33
22,TTCTTTTTTATTTATACATGCAATAAAAAATTGATT [TGCATGCA_site730],7.27

row,Sequence,gcPBM binding intensity (ln)
1,TTTTTTTAAAACAAAAAAAAAAAAAAAAAAAAAAAA [TGCATGCA_negctrl_site418],6.78
2,AATAAACATTATTTTCGTATTCCAATTCTTTTTTTT [XGTACX_negctrl_site374],6.79
3,AAGAGAGAGAAATATGCACACATAAGGGAAATAAAT [CACACA_site8300],7.41
4,TATATATGTATGTATGTACACACAAAAAATGGAATA [CACACA_site9235],7.1
5,TTATTATTAGAAAAAAGTACACATATAAAATGTTAC [XGTACX_site6426],6.89
6,GGATACATATGTAAAAGTACACATGAATATATACAT [XGTACX_site6469],7.24
7,GTAAAATTAAAAATAACACACAAAAAAAAAAAAAAA [CACACA_site800],6.93
8,AAAAAAAAAAGAAAAAGTACATACATACATATATAT [XGTACX_site6405],7
9,TTTTAATTAGTACAAACACACATATACAGACAAAAA [CACACA_site2563],7.35
10,AGACGATAAATCATTCATTCATTTACCATCCAAAAA [CACACA_negctrl_site802],6.74
11,TAATATAGAAAATGCATACACACTTTATATATATAT [CACACA_site911],8.82
12,TACTATTATTATTGCACACTTATTATCCCTCGGATA [CACACA_site162],7.13
13,AATATATATTAATACACACACACATATATATATATA [CACACA_site3786],9.32
14,TGATCATAGAAACACACACACAAAAAAAAAAAAAAA [CACACA_site4008],7.06
15,AAAATTTTTTTTGGCGCACACTAATAATAAAATATA [CACACA_site470],7.23
16,CTTTTTAATGAATACACACACACACCGATATATATA [CACACA_site5296],7.5
17,AAATATTATTGACGATGTACTTCTATTCATAAGTAT [XGTACX_site3964],6.74
18,GAATAATATGGACATACACACATATACATACCTATA [CACACA_site7075],7.25
19,TAAAACTTATACAAATGTACAAATATATATATATAT [XGTACX_site4661],8.89
20,TATATAAATATACACCCACACACATATATATATATA [CACACA_site9247],9.73
21,TATATATATAACATATGTACATATATTTATAAATAC [XGTACX_site5484],8.08
22,AATAATTTAATACATACACACGTATATCTTTTTTTT [CACACA_site8632],7.07

row,Sequence,gcPBM binding intensity (ln)
1,ATCGTAGTATAATATGAACACACACCCACCCACAAA [CACACA_site8616],7.34
2,TATATTCCACTCATTGATTTTCTCTTCTCACAAAAA [CACACA_negctrl_site1016],7.01
3,TATAAAAAAAAATGTGGTACATATTTCCATTTTCCA [XGTACX_site4571],7.07
4,TTATTTTTATTATAAATTATAAAATATAAATAAATA [GTGCAC_negctrl_site616],6.79
5,TAAATCCGCACGCACACACACATATTAATAAAAAAA [CACACA_site7800],7.67
6,CATGAATTTTTTTAATGTACATTCACATCATAAAAA [XGTACX_site7475],7
7,ATATATTATATATATAGTACGTATATAAATTTAATT [XGTACX_site5041],7.14
8,TCTTCTTAACCAACTATGAAAAGGAAAAATATAACA [GTGCAC_negctrl_site565],7
9,GAAACTATGTAATGCACACCAAAATAAAATTATTAA [CACACA_site1904],7.99
10,ATTATAAAAAAGAAACGTACATATTTATTGTTTTTT [XGTACX_site2161],6.99
11,TATAATAATACTTATTGTACTATTAGTTTAATTCAT [XGTACX_site6638],6.73
12,ATCTTTCAATAATTCACACATATATATATATATATA [CACACA_site4598],9.91
13,CTATTACAAAGAAATTGTACATATATATATAAAAAC [XGTACX_site8800],7.16
14,ATATATATATATGTACACATATATGTGTTTGTTTTT [GTGCAC_negctrl_site5],9.12
15,AATGAAGACTTTTTTACACACTTCATATCTTATAGA [CACACA_site7046],6.57
16,AGCCACAATACGGAAACACACAAGTTATTTTATCAT [CACACA_site2724],7.01
17,TTTTTATGAATTCTTTTGTTAATAATAATATGTTGT [TGCATGCA_negctrl_site198],7.01
18,TTTTAACGTAATTCAAATGAGCAGAATTTTTTAAAA [CACACA_negctrl_site1800],6.66
19,AATATTTTTAATTAATGTACATATTTATTATATAAA [XGTACX_site5112],7.1
20,AAATTTTTTCCGATTTGTACTTATATTTCTTTATTA [XGTACX_site1762],6.67
21,TAAATAAATTTATGTACACACACAAATAAATACATA [CACACA_site5107],7.23
22,AAAAAAAAGAAAAACACACACATATTTATTTATAAC [CACACA_site6600],6.93
